The values below come from the supplement of paper PMC4967469.

A word on the IC50: it is the concentration that gives 50% inhibition.

What all share (assay): Viability of human cancer cell lines after 72 h of drug (GDSC screen)
Compound in one test: CC(=O)Nc1nc(C)c(-c2ccc(Cl)c(S(=O)(=O)NCCO)c2)s1 [PIK-93]
The following applies: top dose 20 µM. As for the experimental part:
(§1)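 Human cancer cell lines in 384-well plates, medium with 10% serum, drug for 72 h over a 256-fold dose range (nine 2-fold or five 4-fold steps up to the top dose). Adherent lines were fixed and stained with the nucleic acid dye Syto60, suspension lines read with resazurin; signal relative to control wells, capped at 0 and 100%. One two-parameter sigmoid per drug and line, fitted in a mixed model over all curves with the slope shared within a line.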

Compound in a further test: CC1(C)CCC(c2ccc(Cl)cc2)=C(CN2CCN(c3ccc(C(=O)NS(=O)(=O)c4ccc(N[C@H](CCN5CCOCC5)CSc5ccccc5)c(S(=O)(=O)C(F)(F)F)c4)cc3)CC2)C1 [ABT-263]
The note with it: top dose 2 µM; top dose inferred. As for the experimental part: as §1

Compound in the next test: COc1cc(/C=C/C(=O)N2CCC=CC2=O)cc(OC)c1OC [piperlongumine]
The following applies: top dose 10 µM. The procedure:
as §1

Compound in the next test: COc1cc2ncn(-c3cc(OCc4ccccc4C(F)(F)F)c(C(N)=O)s3)c2cc1OC [GW843682X]
The following applies: top dose 0.256 µM. As for the experimental part: as §1

Compound in another test: Cn1cc(/C=C2\C(=O)Nc3cccnc32)c2ccccc21 [GW 441756]
The note with it: top dose 2 µM; top dose inferred. The procedure:
as §1

Compound in another test: O=C(/C=C/c1ccccc1)NC(NC(=S)Nc1cccc2cccnc12)C(Cl)(Cl)Cl [Salubrinal]
The note with it: top dose 16 µM; top dose inferred. As for the experimental part:
as §1

The IC50 comes from the fitted curve, where viability falls to half of the control; a limit (>, <) means that the fit lies beyond the doses tested. AUC, from the same fit, is the share of area under the viability curve across the 256-fold dose range: 1 means no effect, lower means more sensitive. For some assays here: An inferred top dose is not printed in the source and was worked back from the curve model. Where only a bound is given, the exact number is not on record here.

Consider “COLO-320-HSR (large intestine, suspension)”, for which the AUC stood at 0.557 with PIK-93; 0.991 with ABT-263; 0.814 with piperlongumine; 0.594 with GW843682X; 0.989 with GW 441756; 0.938 with Salubrinal. The IC50 in the test with PIK-93 was 1750 nM; with ABT-263, above 2000 nM; in the test with piperlongumine it was 4560 nM; in the test with GW843682X, 27.9 nM; with GW 441756, above 2000 nM; with Salubrinal, above 16000 nM.

KINGS-1 (glioma, adherent): the AUC in the test with PIK-93 worked out at 0.705; with ABT-263 it was 0.878; with piperlongumine, 0.799; in the test with GW843682X, 0.747; with GW 441756 it was 0.875; with Salubrinal, 0.954. In addition, the half-maximal inhibitory concentration (IC50) was 5950 nM in the test with PIK-93; above 2000 nM in the test with ABT-263; 7060 nM with piperlongumine; 110 nM with GW843682X; above 2000 nM with GW 441756; above 16000 nM with Salubrinal.

Turning to “ML-2 (acute myeloid leukaemia, suspension)”, the AUC with PIK-93 is 0.324; with ABT-263, 0.456; in the test with piperlongumine it was 0.816; with GW843682X, 0.38; with GW 441756, 0.99; with Salubrinal, 0.76. Besides, the IC50 with PIK-93 is 430 nM; with ABT-263, 96.1 nM; in the test with piperlongumine it was 4770 nM; with GW843682X, 7.8 nM; with GW 441756 it was above 2000 nM; with Salubrinal it was 5060 nM.

On to “LU-139 (small cell lung carcinoma, suspension)”, for which the AUC stood at 0.685 with PIK-93; 0.582 with ABT-263; 0.776 with piperlongumine; 0.648 in the test with GW843682X; 0.982 in the test with GW 441756; 0.869 in the test with Salubrinal. Further, the IC50 was 4790 nM with PIK-93; 223 nM with ABT-263; 5150 nM with piperlongumine; 46.3 nM with GW843682X; above 2000 nM in the test with GW 441756; above 16000 nM with Salubrinal.

Regarding GCIY (stomach, adherent), the AUC came out at 0.836 in the test with PIK-93; 0.883 with ABT-263; 0.689 with GW843682X; 0.982 in the test with GW 441756; 0.915 with Salubrinal. Moreover, the 50% inhibitory concentration (IC50) with PIK-93 is 15800 nM; with ABT-263, above 2000 nM; in the test with GW843682X it was 58.5 nM; with GW 441756, above 2000 nM; with Salubrinal, above 16000 nM.

For the cell line NB69 (neuroblastoma, adherent), the AUC amounted to 0.906 with PIK-93; 0.834 with ABT-263; 0.719 in the test with GW843682X; 0.975 with GW 441756; 0.972 with Salubrinal. Moreover, the IC50 with PIK-93 is above 20000 nM; with ABT-263 it was 1100 nM; in the test with GW843682X, 61.3 nM; in the test with GW 441756, above 2000 nM; with Salubrinal, above 16000 nM.

For the cell line “SUP-B15 (lymphoblastic leukaemia, suspension)”, the AUC with PIK-93 turned out to be 0.679; with ABT-263 it was 0.131; with GW843682X it was 0.64; in the test with GW 441756, 0.982; with Salubrinal it was 0.772. Moreover, the IC50 is 3870 nM with PIK-93; 9.09 nM with ABT-263; 38.4 nM with GW843682X; above 2000 nM with GW 441756; 5930 nM in the test with Salubrinal.

On to “NCI-H510A (small cell lung carcinoma, semi-adherent)”, for which the AUC with PIK-93 was found to be 0.837; with ABT-263 it was 0.569; with GW843682X it was 0.478; with GW 441756, 0.969; with Salubrinal, 0.813. Besides, the IC50 with PIK-93 was 11800 nM; with ABT-263, 189 nM; with GW843682X, 14 nM; with GW 441756, above 2000 nM; in the test with Salubrinal, 7790 nM.

Take MHH-NB-11 (neuroblastoma, adherent): the AUC is 0.751 with PIK-93; 0.858 with ABT-263; 0.785 with GW843682X; 0.943 with GW 441756; 0.911 in the test with Salubrinal. Also, the IC50 is 7160 nM with PIK-93; 1910 nM with ABT-263; 122 nM with GW843682X; above 2000 nM in the test with GW 441756; above 16000 nM with Salubrinal.

Turning to NB17 (neuroblastoma, adherent), the AUC is 0.892 with PIK-93; 0.469 with ABT-263; 0.671 with GW843682X; 0.855 in the test with GW 441756; 0.962 in the test with Salubrinal. The IC50 with PIK-93 is above 20000 nM; with ABT-263 it was 102 nM; with GW843682X it was 51.7 nM; with GW 441756 it was 1990 nM; in the test with Salubrinal it was above 16000 nM.

BB30-HNC (head and neck, adherent): the AUC came to 0.858 with PIK-93; 0.63 with ABT-263; 0.563 with GW843682X; 0.982 with GW 441756; 0.938 with Salubrinal. Further, the IC50 with PIK-93 is 15800 nM; in the test with ABT-263 it was 283 nM; with GW843682X, 23.7 nM; in the test with GW 441756, above 2000 nM; with Salubrinal, above 16000 nM.

With MY-M12 (leukaemia, suspension), the AUC was found to be 0.352 in the test with PIK-93; 0.465 with ABT-263; 0.344 with GW843682X; 0.978 in the test with GW 441756; 0.862 with Salubrinal. Moreover, the IC50 in the test with PIK-93 was 460 nM; in the test with ABT-263, 98.9 nM; with GW843682X, 5.55 nM; with GW 441756, above 2000 nM; with Salubrinal it was above 16000 nM.
